From ChEMBL document CHEMBL1201862, “PubChem BioAssay data set” (2004)
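Compound exposure: 48 hours, 5 concentrations, 96-well plates. GI50 marks 50% less growth.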 The source made the active and inactive calls. No stated cut-off is given here; in the data, active = GI50 up to about 1.1 µM and inactive = higher.

Columns and labels:
Test in all cases: NCI anticancer screen, dose series, 48 h
SK-OV-3 = system: SK-OV-3
HOP-18 = system: HOP-18
OVCAR-3 = system: OVCAR-3
SW-620 = system: SW-620
ACHN = system: ACHN
DMS-273 = system: DMS-273
UACC-257 = system: UACC-257
Hs-578T = system: Hs-578T
BT-549 = system: BT-549
OVCAR-8 = system: OVCAR-8
NCI/ADR-RES = system: NCI/ADR-RES
MCF7 = system: MCF7
RPMI-8226 = system: RPMI-8226
OVCAR-5 = system: OVCAR-5
HOP-62 = system: HOP-62
LXFL 529 = system: LXFL 529
M19-MEL = system: M19-MEL
A498 = system: A498
RXF 393 = system: RXF 393
CCRF-CEM = system: CCRF-CEM
KM12 = system: KM12
HL-60 = system: HL-60
SF-295 = system: SF-295
HOP-92 = system: HOP-92
HT-29 = system: HT-29
MDA-MB-435 = system: MDA-MB-435
SF-539 = system: SF-539
T47D = system: T47D
SF-268 = system: SF-268
MDA-MB-231 = system: MDA-MB-231
KM-20L2 = system: KM-20L2
IGROV-1 = system: IGROV-1
CAKI-1 = system: CAKI-1
UACC-62 = system: UACC-62
OVCAR-4 = system: OVCAR-4
NCI-H460 = system: NCI-H460
TK-10 = system: TK-10
SK-MEL-2 = system: SK-MEL-2
786-0 = system: 786-0
SN12C = system: SN12C
DU-145 = system: DU-145
HCC 2998 = system: HCC 2998
SR = system: SR
HCT-15 = system: HCT-15
Malme-3M = system: Malme-3M
SNB-75 = system: SNB-75
LOX IMVI = system: LOX IMVI
RXF 631 = system: RXF 631
M14 = system: M14
PC-3 = system: PC-3
NCI-H23 = system: NCI-H23
U-251 = system: U-251
MDA-N = system: MDA-N
DLD-1 = system: DLD-1
MOLT-4 = system: MOLT-4
A549 = system: A549
SK-MEL-5 = system: SK-MEL-5
DMS-114 = system: DMS-114
SNB-78 = system: SNB-78
SNB-19 = system: SNB-19
UO-31 = system: UO-31
NCI-H522 = system: NCI-H522
HCT-116 = system: HCT-116
K562 = system: K562
NCI-H226 = system: NCI-H226
COLO 205 = system: COLO 205

SMILES: COc1cc2c(c(OC)c1OC)-c1ccc(SC)c(=O)cc1[C@@H](N)CC2
- GI50 (SK-OV-3): active: 16 nM
- GI50 (HOP-18): inactive: > 100000 nM
- GI50 (OVCAR-3): active: 12.9 nM
- GI50 (SW-620): active: 17.5 nM
- GI50 (ACHN): active: 16.3 nM
- GI50 (DMS-273): active: < 10 nM
- GI50 (UACC-257): active: 239 nM
- GI50 (Hs-578T): active: 15.8 nM
- GI50 (BT-549): active: 29.1 nM
- GI50 (OVCAR-8): active: 16.8 nM
- GI50 (NCI/ADR-RES): active: 58.9 nM
- GI50 (MCF7): active: 349 nM
- GI50 (RPMI-8226): active: 15.2 nM
- GI50 (OVCAR-5): active: 153 nM
- GI50 (HOP-62): active: < 10 nM
- GI50 (LXFL 529): active: < 10 nM
- GI50 (M19-MEL): active: < 10 nM
- GI50 (A498): active: 10.8 nM
- GI50 (RXF 393): active: 12.3 nM
- GI50 (CCRF-CEM): active: 151 nM
- GI50 (KM12): active: 13.6 nM
- GI50 (HL-60): active: 20.5 nM
- GI50 (SF-295): active: 15.5 nM
- GI50 (HOP-92): active: 22.2 nM
- GI50 (HT-29): active: 15 nM
- GI50 (MDA-MB-435): active: < 10 nM
- GI50 (SF-539): active: 14.3 nM
- GI50 (T47D): inactive: > 100000 nM
- GI50 (SF-268): active: 26.6 nM
- GI50 (MDA-MB-231): active: 662 nM
- GI50 (KM-20L2): active: < 10 nM
- GI50 (IGROV-1): active: 18.6 nM
- GI50 (CAKI-1): active: 21.2 nM
- GI50 (UACC-62): active: 13.6 nM
- GI50 (OVCAR-4): inactive: 5650 nM
- GI50 (NCI-H460): active: 16.4 nM
- GI50 (TK-10): active: 25 nM
- GI50 (SK-MEL-2): active: 22.1 nM
- GI50 (786-0): active: 18.9 nM
- GI50 (SN12C): active: 18.3 nM
- GI50 (DU-145): active: 22.4 nM
- GI50 (HCC 2998): active: 16.9 nM
- GI50 (SR): active: 196 nM
- GI50 (HCT-15): 13.1 nM
- GI50 (Malme-3M): active: 20.8 nM
- GI50 (SNB-75): active: 93.1 nM
- GI50 (LOX IMVI): active: 18.9 nM
- GI50 (RXF 631): active: < 10 nM
- GI50 (M14): active: 14.5 nM
- GI50 (PC-3): active: 15.5 nM
- GI50 (NCI-H23): active: 23.7 nM
- GI50 (U-251): active: 16.6 nM
- GI50 (MDA-N): active: < 10 nM
- GI50 (DLD-1): active: < 10 nM
- GI50 (MOLT-4): active: 16.4 nM
- GI50 (A549): active: 18 nM
- GI50 (SK-MEL-5): active: 14.9 nM
- GI50 (DMS-114): active: < 10 nM
- GI50 (SNB-78): active: < 10 nM
- GI50 (SNB-19): active: 15.3 nM
- GI50 (UO-31): active: 31.3 nM
- GI50 (NCI-H522): active: 14.6 nM
- GI50 (HCT-116): active: 15.4 nM
- GI50 (K562): active: 133 nM
- GI50 (NCI-H226): active: 186 nM
- GI50 (COLO 205): active: 13 nM
